PubChem BioAssay AID1030 (National Center for Advancing Translational Sciences (NCATS), 2008)
In all, about 220,000 compounds went through this assay and about 16,000 (7.3%) were called active. The inconclusive results got no clear call from the source; some entries with a clear call stand among them for comparison. Calls come from the whole dose curve; as a rule, active = well fitted inhibition curve with a large enough effect (not every such curve was filed as active); inconclusive = small, poorly fitted or top-dose-only effect, or another doubt; inactive = no such curve, though single readings can be large or run the other way. No potency is given beside an inconclusive call; the fits are too rough.

Target: Aldehyde dehydrogenase 1A1 (Homo sapiens) (UniProt P00352)
Sequence of UniProt P00352 (P00352 whole entry, looked up): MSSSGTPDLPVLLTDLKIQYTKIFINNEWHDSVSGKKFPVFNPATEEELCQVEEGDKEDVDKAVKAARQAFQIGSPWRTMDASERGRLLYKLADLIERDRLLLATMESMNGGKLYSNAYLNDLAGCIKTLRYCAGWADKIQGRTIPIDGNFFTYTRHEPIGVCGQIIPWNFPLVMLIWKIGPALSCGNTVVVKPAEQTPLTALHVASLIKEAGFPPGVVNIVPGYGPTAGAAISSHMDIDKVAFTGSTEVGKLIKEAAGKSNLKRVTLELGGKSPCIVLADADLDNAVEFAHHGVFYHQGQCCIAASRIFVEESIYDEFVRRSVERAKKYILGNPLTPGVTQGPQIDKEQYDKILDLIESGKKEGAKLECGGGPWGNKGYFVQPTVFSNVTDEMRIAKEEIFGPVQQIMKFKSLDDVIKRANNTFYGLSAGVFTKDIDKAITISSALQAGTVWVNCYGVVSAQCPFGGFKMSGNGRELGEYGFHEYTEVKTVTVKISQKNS
Experiment: qHTS Assay for Inhibitors of Aldehyde Dehydrogenase 1 (ALDH1A1);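 for activity, negative = inhibition: plate controls were no enzyme wells and a reference inhibitor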
Conditions: Purified ALDH1A1, NADH fluorescence, propionaldehyde substrate; series mostly up to 75.3 µM; activity, negative = inhibition: at the top concentration
Potency is the fitted concentration of half-maximal effect; tags give direction and shape of the fitted curve.

| SMILES | Potency | activity, negative = inhibition |
| --- | --- | --- |
| COc1cccc(-c2nc(=S)c3c(n2Cc2ccco2)CCCC3)c1 | inconclusive [inhibitor, single point] | – |
| N#Cc1c(Nc2ccccc2)sc(C(=O)C2CC2)c1N | – | inactive: 2.46% |
| CCOC(=O)c1c(NCC(C)C)c2ccccc2[nH]c1=O | inconclusive [inhibitor, single point] | – |
| CN1CCc2c(n(CC(O)CN(CCO)CCO)c3ccccc23)C1=O (centres undefined) | – | inactive: 0.302% |
| Cc1nc(N2CCN(Cc3ccc4c(c3)OCO4)CC2)c2cc(-c3ccccc3)sc2n1 | inconclusive [inhibitor, partial curve] | – |
| COc1ccc(NN=Nc2nc3c([nH]2)c(=O)n(C)c(=O)n3C)cc1 | active: 8.91 µM | – |
| CC(C)(C)C(=O)Nc1cccc(-c2cc(-c3c(Cl)cccc3Cl)no2)c1 | – | inactive: -9.84% |
| COc1ccc(CCNC(=O)CSc2nncn2N)cc1OC | inconclusive [inhibitor, single point] | – |
| N=c1c(C(=O)NCc2ccccc2)cc2c(=O)n3ccccc3nc2n1Cc1ccco1 | inconclusive [inhibitor, partial curve] | – |
| O=C(CCC(=O)N/N=C/c1c[nH]c2ccccc12)NCc1ccccc1 | – | inactive: -6.3% |
| CC(C)C1N=C2c3ccccc3N=C(SCC#N)N2C1=O (centres undefined) | inconclusive [inhibitor, partial curve] | – |
| COC(=O)CC1C(=O)NCCN1C(=S)Nc1ccccc1Cl (centres undefined) | – | inactive: -7.15% |
| CC(=O)Nc1ccc(S(=O)(=O)N2CCN(CC3CC4C=CC3C4)CC2)cc1 (centres undefined) | active: 4.47 µM | – |
| CCOCC(=O)N1CCCC(C(=O)OCC)C1 (centres undefined) | active: 3.55 µM | – |
| COCc1cc(=O)[nH]c(Nc2nc(C)c3ccccc3n2)n1 | active: 20 µM | – |
| COc1ccc(C(C)NC(=O)C2C(=O)NC3(C)CC2c2ccccc2O3)cc1 (centres undefined) | inconclusive [inhibitor, partial curve] | – |
| Cc1[nH]n(-c2ccccc2)c(=O)c1/C=N/NC(=O)c1cccc([N+](=O)[O-])c1 | – | inactive: 3.93% |
| O=C(Cn1c2ccccc2c(=O)c2ccccc21)Nc1ccccc1F | inconclusive [inhibitor, partial curve] | – |
| CC(=O)OC1c2ccccc2C(=O)N1Cc1ccccc1Cl (centres undefined) | inconclusive [inhibitor, single point] | – |
| COc1cc(C)c(Cl)cc1S(=O)(=O)NCc1ccco1 | – | inactive: 9.18% |
| COc1cc(CCC(=O)OCC(=O)Nc2c(C)cc(C)cc2C)cc(OC)c1OC | inconclusive [inhibitor, single point] | – |
| CCN(CC)P(=O)(/C(Cl)=C\Nc1c(C)n(C)n(-c2ccccc2)c1=O)N(CC)CC | active: 17.8 µM | – |
| CC(=O)N1CCC2(CC1)CC(=O)c1cc(OCC(=O)N3CCCC3)ccc1O2 | inconclusive [inhibitor, partial curve] | – |
| COCCCN=C(c1ccco1)n1c(=S)nc(-c2ccco2)n(CCCOC)c1=S | active: 3.55 µM | – |
| COC(=O)/C(=C/Nc1cccc2ccccc12)[N+](=O)[O-] | inconclusive [inhibitor, full curve] | – |
| O=C(NNS(=O)(=O)c1ccc2ccccc2c1)c1cc(-c2ccccn2)nc2ccccc12 | – | inactive: -14.3% |
| CCOc1cccc(-c2nc3cc(C)ccc3o2)c1 | inconclusive [inhibitor, single point] | – |

| SMILES | Potency | activity, negative = inhibition |
| --- | --- | --- |
| Cc1nc(/C=C\C(=O)O)c2cc(C)oc2n1 | inconclusive [inhibitor, partial curve] | – |
| O=C(O)CCCN1C(=O)/C(=C/c2ccc(-c3nc4ccccc4s3)o2)SC1=S | inconclusive [inhibitor, single point] | – |
| COc1ccc(CNc2ccc(C(=O)O)cc2)cc1 | – | inactive: 12.8% |
| O=C(Nc1ccccc1)Nc1ccccc1 | inactive | – |
| O=C(Nc1ccccc1)N1CC[C@@]2(CCCN(C(=O)c3csnn3)C2)C1 | – | inactive: -7.52% |
| Cc1cc(C)c2oc(-c3ccc(C)c(NC(=S)NC(=O)c4cccs4)c3)nc2c1 | inconclusive [inhibitor, single point] | – |
| O=C(Nc1ccccc1C(=O)OCC(=O)c1c[nH]c2ccccc12)c1ccco1 | inconclusive [inhibitor, single point] | – |
| C/C=C/c1ccc(OCCCNC2CCCC2)c(OC)c1 | active: 28.2 µM | – |
| Cc1onc(-c2ccccc2)c1C(=O)Nc1nc2c(s1)C(=O)CC(C)(C)C2 | inconclusive [inhibitor, single point] | – |
| CC1(C)Cc2nc3oc4c(NCCCN5CCOCC5)ncnc4c3cc2CO1 | inconclusive [inhibitor, partial curve] | – |
| CCn1c(-c2cc(-c3ccccc3OC)nc3ccccc23)n[nH]c1=S | inconclusive [inhibitor, single point] | – |
| Cc1ccc(C(=O)CCNc2cccc(Br)c2)o1 | inconclusive [inhibitor, single point] | – |
| O=C1NC2(CCCCC2)Cc2ccccc21 | inconclusive [inhibitor, single point] | – |
| COc1ccccc1N1CCN(C(=O)CN(C)S(=O)(=O)c2cc(C)ccc2OC)CC1 | – | inactive: 3.67% |
| OCCNc1cnc2ccccc2n1 | inconclusive [inhibitor, single point] | – |
| COc1ccc(C(=O)CSc2ccc(-c3ccccc3)nn2)cc1 | active: 7.94 µM | – |
| CCOC(=O)Cn1nnnc1C(CC)N(Cc1cccs1)Cc1cc2ccc(OC)cc2[nH]c1=O (centres undefined) | inconclusive [inhibitor, partial curve] | – |
| O=C(CN1CCN(c2ccc(F)cc2)CC1)c1cccs1 | active: 7.08 µM | – |
| Oc1ccc(C=NC2CCCCC2)c(O)c1 | inconclusive [inhibitor, single point] | – |
| Cc1ccc2c(c1)CCCN2C(=O)c1cc2ccccc2oc1=O | active: 14.1 µM | – |
| O=C(CN1CCN(Cc2ccc(F)cc2)C1=O)NC1CCCC1 | – | inactive: -10.9% |
| C/C(CCc1ccccc1)=N/NC(=O)C(=O)NCc1ccccc1 | – | inactive: 9.57% |
| O=C(c1cc(-c2cccnc2)nc2ccc(Br)cc12)N1CCN(c2ncccn2)CC1 | – | inactive: -4.68% |
| COc1ccc(C2OC(=O)CC2C(=O)NC(C)C)cc1 (centres undefined) | active: 15.8 µM | – |
| CCOc1cc(C)c(S(=O)(=O)N2CCCC2)cc1C | – | inactive: 1.88% |
| O=C(OC1Cn2c(=O)ccc(=O)n2C1)c1ccccc1 | – | inactive: -7.33% |
| COC(=O)c1ccc(NC(=O)C2C3C=CC(O3)C2C(=O)O)cc1 (centres undefined) | active: 4.47 µM | – |

| SMILES | Potency | activity, negative = inhibition |
| --- | --- | --- |
| CC(=O)Nc1ccc2c(c1)n(C)c(=O)n2C | – | inactive: 3.05% |
| O=S(=O)(Nc1ccccc1)c1ccc(Oc2ncc(C(F)(F)F)cc2Cl)cc1 | – | inactive: 1.65% |
| CC(Oc1cccc(Cl)c1)C(=O)NCc1ccc(S(N)(=O)=O)cc1 (centres undefined) | – | inactive: -7.98% |
| Cc1ccc(S(=O)(=O)N2C(=O)C(c3ccccc3)SC2=Nc2ccccc2)cc1 (centres undefined) | active: 8.91 µM | – |
| COc1cc(OC)cc(C(=O)OCC(=O)Nc2ccc(F)cc2F)c1 | – | inactive: 10.8% |
| CCn1cc(C(=O)OCC(=O)Nc2ccc(S(=O)(=O)N3CCCC3)cc2)c(=O)c2ccc(C)nc21 | inconclusive [inhibitor, single point] | – |
| N#CCSc1nc2ccccc2c(=O)n1CC1CCCC1 | inconclusive [inhibitor, partial curve] | – |
| Cc1cccc(N2C(=O)CC(N3CCN(c4ccccc4)CC3)C2=O)c1 (centres undefined) | inconclusive [inhibitor, single point] | – |
| CN(C)S(=O)(=O)c1ccc(C(=O)Nc2nnc(SCc3cccc(F)c3)s2)cc1 | inconclusive [inhibitor, single point] | – |
| O=C(c1cc(C(F)(F)F)cc(C(F)(F)F)c1)N1CCC[C@@]2(CCN(Cc3nccs3)C2)C1 | – | inactive: 1.48% |
| Cc1ccc2nc(Cl)c3cc(C(=O)N(CCN(C)C)Cc4ccco4)sc3c2c1 | inconclusive [inhibitor, single point] | – |
| CCOc1ncccc1C(=O)OCC(=O)c1ccccc1Br | inconclusive [inhibitor, single point] | – |
| CCOC(=O)Cn1c(=O)n(Cc2ccco2)c(=O)c2ccc(C(=O)NCCc3ccccc3)cc21 | active: 3.98 µM | – |
| CCOc1c2ccc(C(=O)NCc3ccc(OC)cc3)cc2nn1CCOC | inconclusive [inhibitor, partial curve] | – |
| COCCNC(=S)Nc1cccc2cnccc12 | – | inactive: -14.4% |
| Cc1cc(O)ccc1-c1cnc2ccccc2n1 | active: 28.2 µM | – |
| COc1ccc(S(=O)(=O)N2c3ccccc3OCC2c2ccccc2)cc1 (centres undefined) | – | inactive: 4.24% |
| Cc1ccccc1N1CCN(C(=S)c2ccc([N+](=O)[O-])cc2)CC1 | inconclusive [inhibitor, single point] | – |
| C=CCOC(=O)C1=C(C)NC2(O)c3ccccc3C(=O)C12O (centres undefined) | inconclusive [inhibitor, single point] | – |
| COc1ccc2c(c1)C(C)=CC(C)(C)N2C(=O)CNCc1ccc2c(c1)OCO2 | inconclusive [inhibitor, single point] | – |
| O=C(O)c1cc(N/N=C/c2ccc(OCc3ccccc3)cc2)ccc1Cl | – | inactive: 3.69% |
| CCOC(=O)N1CCC(NC(=O)CSCc2nc(-c3cccc(OC)c3)oc2C)CC1 | inconclusive [inhibitor, single point] | – |
| C[C@H](O)[C@@H]1C(=O)N2C(C(=O)O)=C(SCCN=CN)C[C@@H]12 | – | inactive: -2.08% [at 20.9 µM] |
| O=C(CCN1CCc2ccccc2C1)c1ccc2c(c1)OCCO2 | inconclusive [inhibitor, full curve] | – |
| CN1CCN(S(=O)(=O)c2ccc(N3CCN(C(=O)c4ccccc4)CC3)nc2)CC1 | inconclusive [inhibitor, single point] | – |
